Experimental data from PubChem BioAssay AID1347417 (National Center for Advancing Translational Sciences (NCATS), 2020).
Screen size: about 120,000 compounds; about 5,300 (4.4%) were called active. The shares of active, inactive and inconclusive entries below differ from those in the screen. The call rests on the fitted dose curve; in most records, active means well fitted inhibition curve with a large enough effect; inconclusive means small, poorly fitted or top-dose-only effect; inactive means no such curve, though single readings can be large or run the other way. Potencies of inconclusive entries are doubtful fits and often do not repeat.

Assay: qHTS Primary assay for Inhibitors of Plasmodium falciparum Dd2 growth in vitro; further: nearly all actives have a fitted effect of over 65% in size;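 on activity, negative = inhibition: plate controls were DMSO vehicle for no effect and reference drug for full effect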
Conditions: P. falciparum Dd2 growth, SYBR Green, 72 h; activity, negative = inhibition: at 28.9 µM (top of the series) unless noted; series mostly up to 28.9 µM
Procedure, shortened: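 Infected erythrocytes (Dd2, 0.3% parasitemia, 2.5% hematocrit final) are added to compound in RPMI-1640/Albumax II medium, grown 72 h at 37C in low oxygen, then lysed with saponin/Triton-X containing SYBR Green and read by fluorescence.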
Potency means the concentration at half of the fitted maximal effect; tags describe the fitted curve by direction and shape.

Compound	Potency	activity, negative = inhibition
O=[S+]([O-])(c1cccs1)N1CCc2nc(-c3ccc(Cl)cc3)nc(-c3ccccc3)c2C1	inactive	–
COCCOCC1(CNCc2c(C)noc2C)C[C@@H](O)[C@@H](O)C1 (stereo not given in full)	inactive	–
Cc1ccc(C(=O)NC2CCN(c3cc(-c4ccc(F)cc4)[nH]n3)CC2)cc1	inactive	–
O=C1Nc2ccc(-c3ccc4c(c3)OCO4)cc2C(=O)N2CCN(C(=O)c3cccs3)C[C@@H]12	active: 12.6 µM	–
O=C(/C=C/c1ccc(Cl)cc1)N1CCC(c2nc3ccccc3o2)CC1	inactive	–
COc1cc(Cl)ccc1C(=O)N1CCC2(CC1)NC(=O)N(c1ccc(F)cc1)N2	inconclusive: 7.94 µM [inhibitor, partial curve, poor fit]	–
CC(C)c1noc(C2CCCN(Cc3cc(=O)c4cccc(F)c4[nH]3)C2)n1 (stereo not given)	inconclusive: 20 µM [inhibitor, partial curve, poor fit]	–
COc1ncccc1-c1cccc(CCOc2cnc3c(ccn3CC(=O)O)c2)c1	inactive	–
Cc1cccc(CN2CCNc3cc(-c4ccnc(C)c4)ncc3C2)c1	inactive	–
CN(C)C[C@@H]1CN(c2ccccn2)C[C@H]1NC(=O)c1ccc2c(c1)OCO2	inactive	–
Cc1ccc(CN(C)C(C)c2cccs2)cc1 (stereo not given)	inactive	–
Cc1cc(C(=O)N2CCCn3ccnc3C2c2cnn(C)c2)n(C)n1 (stereo not given)	inactive	–
Cc1sc2ncn(CC(=O)N(C)c3ccc(C(C)C)cc3)c(=O)c2c1S(=O)(=O)N1CCC(C)CC1	inconclusive: 17.8 µM [inhibitor, single point]	–
O=S(=O)(c1ccc(F)cc1)N1CCCC(Cc2noc(-c3ccncc3)n2)C1 (stereo not given)	inactive	–
Cc1ncccc1C(=O)N1CCCCCCN(C)C(=O)[C@@H]2CCC[C@@H]21	inconclusive: 11.2 µM [inhibitor, single point]	–
CCOc1ccc(CC(=O)NCc2ccc3c(c2)CCN3C(=O)c2ccccc2)cc1OCC	inconclusive: 17.8 µM [inhibitor, single point]	–
O=C(NCCc1ccccc1)c1ccc2c(c1)OCCN(c1ccccc1)C2	active: 10 µM	–
COc1ccc(NC(=O)c2c(NC(=O)COc3ccccc3)sc3c2CCCCC3)cc1	–	inactive: 11% [at 0.594 µM]
COc1ccc(-c2noc(CC3CCN(C(=O)Cc4ccccc4OC)CC3)n2)cc1	inconclusive: 17.8 µM [inhibitor, single point]	–
Cc1cc(CNC(=O)c2cccc(F)c2F)c2[nH]c(C)c(C)c2c1	active: 10 µM	–
COc1cccc(CN2C[C@@H]3C(=O)N(Cc4ccc5c(c4)OCO5)C(=O)[C@@H]3C2)c1OC	inconclusive: 3.98 µM [inhibitor, single point]	–
O=C(Cc1ccc(F)cc1)N1CCC[C@H]1c1nc(-c2ccccc2Cl)no1	inactive	–
O=C(CN1CC2CC(C1)[C@H]1CCCC(=O)N1C2)NC1CCN(Cc2ccccc2)CC1 (stereo not given in full)	inconclusive: 17.8 µM [inhibitor, single point]	–
CCc1ccccc1NC(=O)CCC(=O)N1CC(C)Oc2ccc(C)cc21 (stereo not given)	inactive	–

Compound	Potency	activity, negative = inhibition
O=C1NCCCCCCN(C(=O)CCc2nc3ccccc3s2)[C@H]2CCC[C@@H]12	inactive	–
O=C(c1c[nH]c2ccccc12)N1CCC2(CC1)CN(c1ccncn1)CC2CO (stereo not given)	active: 5.62 µM	–
COCCO[C@H]1C(=O)N(C2CCN(S(C)(=O)=O)CC2)[C@H]1c1ccncc1	inactive	–
O=C(Nc1cccc(C(F)(F)F)c1)O[C@@H]1CO[C@H]2[C@@H]1OC[C@@H]2NS(=O)(=O)c1cccc2cccnc12	inactive	–
CC1(c2ccccc2)N(Cc2ccccc2)C(=O)OC12CCN(C(=O)c1cccc(O)c1)CC2 (stereo not given)	inactive	–
Cc1ccc(NC(=O)Cn2cccc2-c2nc(-c3ccc4c(c3)OCO4)no2)cc1	inconclusive: 2.82 µM [inhibitor, full curve, poor fit]	–
Cc1nn(-c2ccc(C(C)C)cc2)c(C)c1[C@@H]1C=C[C@@H](NCc2ccccc2)C1	inconclusive: 1.78 µM [inhibitor, full curve, poor fit]	–
Cc1cccc(NC(=O)N2CCC(N3CCN(Cc4ccccc4)C(=O)C3=O)CC2)c1C	inconclusive: 17.8 µM [inhibitor, single point]	–
CC(C)c1ccc(CNc2nc(-c3ccco3)nn2S(=O)(=O)c2ccc(F)cc2)cc1	inconclusive: 11.2 µM [inhibitor, partial curve, poor fit]	–
C[S+](=O)([O-])N1Cc2ccccc2CC12CN(C(=O)Nc1ccccc1)C2	inactive	–
O=C(NC1CCCCCCC1)C1CCCN(C2CCN(Cc3ccncc3)CC2)C1 (stereo not given)	active: 12.6 µM	–
COCC(=O)N[C@@H]1CN(Cc2ccc(Br)o2)C[C@H]1CO	inactive	–
CCOC(=O)c1ccc(NC(=O)CN2C(=O)NC3(CCCCC3)C2=O)cc1	inconclusive: 7.94 µM [inhibitor, partial curve]	–
CCn1c(C(=O)Nc2ccc(C)cc2C)cc2sc(Cl)cc21	inconclusive: 17.8 µM [inhibitor, single point]	–
Cc1ccc(CNC(=O)N(C)C2CCc3nn(CC4CC4)c(=O)n3CC2)cc1 (stereo not given)	inactive	–
Cc1nn2c(c1-c1ccccc1Oc1ccccc1)N(Cc1ccc(OCC(=O)O)cc1)CCC2	inconclusive: 3.16 µM [inhibitor, single point]	–
Cn1nc(C(=O)N2CCN(c3ccccc3F)CC2)c2c1-c1ccccc1S(=O)(=O)C2	–	inconclusive: -44% [inhibitor] [at 0.594 µM]
Nc1ncccc1CN1C[C@H](c2ccc3c(c2)OCO3)[C@@H]2[C@H]1C1CCN2CC1	inconclusive: 7.94 µM [inhibitor, partial curve]	–
Cn1cc(-c2cnc(Nc3cccc(C(F)(F)F)c3)c3c2CCO3)cn1	inconclusive: 12.6 µM [inhibitor, single point]	–
O=C(c1ccc2c(c1)N(Cc1ccccc1)C(=O)c1ccccc1S2(=O)=O)N1CCc2ccccc21	active: 11.2 µM	–
NCCc1ccc(CN2C[C@@H]3CC[C@H](C2)N(Cc2ccccc2)C3)cc1	active: 11.2 µM	–
Cc1c(NC(=O)C(C)(C)Oc2ccc(Cl)cc2)cccc1-c1nc2ccccc2o1	inconclusive: 11.2 µM [inhibitor, single point]	–
Cc1ccc(O[C@H]2COCC[C@H]2NC(=O)c2ccc(-c3ccn[nH]3)cc2)cn1	inactive	–
COc1ccc(CNC2(Cc3cc(CN(C)Cc4ccccc4)on3)COC2)c(O)c1	inconclusive: 12.6 µM [inhibitor, partial curve]	–

Compound	Potency	activity, negative = inhibition
Cc1oc2c(c1C(=O)NCCN1CCOCC1)CN(Cc1cccc(F)c1)CC2	inconclusive: 11.2 µM [inhibitor, single point]	–
O=C(CSc1nccn1C1CCCC1)Nc1cc(C(F)(F)F)ccc1Cl	active: 11.2 µM	–
Cc1ccccc1-c1nn(-c2ccc(F)cc2F)cc1CN1CCCC1CCO (stereo not given)	active: 7.94 µM	–
COc1ccc(CNC(=O)CC(c2ccc(OC)cc2)N2Cc3ccccc3C2=O)cc1 (stereo not given)	inactive	–
COc1ccc(-c2ccnc3nc(C(C)C)nn23)cc1OC	inconclusive: 20 µM [inhibitor, single point]	–
COCCNC(=O)c1cn2cc(-c3cccc(Cl)c3)n(CC=C(C)C)c(=O)c2n1	inconclusive: 7.94 µM [inhibitor, partial curve, poor fit]	–
Cc1ccc(NC(=O)c2ccc3c(c2)N(C)C2CCCCCN2C3=O)cc1C (stereo not given)	inconclusive: 3.98 µM [inhibitor, single point]	–
COc1nc2nc(CCc3ccccc3)n(C)c2cc1-c1ccc(CO)cc1	inconclusive: 20 µM [inhibitor, single point]	–
Cc1ccc2c(=O)c(C(=O)c3ccc(F)cc3)cn(CC(=O)Nc3ccc4c(c3)OCCO4)c2n1	inconclusive: 11.2 µM [inhibitor, partial curve]	–
O=C(O)C1=NOC2CN(Cc3c(F)cccc3Cl)CC12 (stereo not given)	inactive	–
COc1cccc(OCc2cc(C(=O)N3CCCCC3c3cccnc3)n[nH]2)c1 (stereo not given)	inactive	–
c1ccc(CN2CC[C@H](c3nnc(-c4ccco4)o3)C2)nc1	inconclusive: 10 µM [inhibitor, partial curve]	–
O=C(NCCc1ccccn1)c1ccc2c(c1)OCCN(c1ccccc1)C2	inconclusive: 5.62 µM [inhibitor, single point]	–
COc1ccc(-c2cc(N3CCN(C(=O)c4ccc(C)cc4C)CC3)n[nH]2)cc1	inconclusive: 10 µM [inhibitor, single point]	–
Cc1[nH]ncc1CNC(=O)CCC[C@@H]1[C@H]2CCCN3CCC[C@@H](CN1Cc1cccnc1)[C@@H]23	inactive	–
COc1ccccc1CNC(=O)CSc1ccc(-c2sc(-c3ccccc3)nc2C)nn1	inconclusive: 10 µM [inhibitor, single point]	–
C#CCN(C)C(=O)[C@@H]1CCCN1[C@@H](C(=O)NC)c1ccccc1	inactive	–
Cc1ccc(C)c(CSc2nnc(C)n3c2cc2sccc23)c1	inconclusive: 17.8 µM [inhibitor, single point]	–
COc1ccc(C(=O)C2CCCN(Cc3csc(C(C)=O)c3)C2)c(OC)c1 (stereo not given)	inconclusive: 7.08 µM [inhibitor, partial curve, poor fit]	–
CC(C)C(=O)Nc1nc2c(s1)CC(C(C)(C)C)CC2 (stereo not given)	inconclusive: 11.2 µM [inhibitor, single point]	–
FC(F)(F)CN1C2CCC1CN(c1nccs1)C2	inconclusive: 10 µM [inhibitor, partial curve, poor fit]	–
COc1ccc(C(=O)N2CCC(N3C(=O)[C@H](OC)[C@@H]3c3ccncc3)CC2)cc1	inactive	–
